This passage reports IC50 results from PubChem BioAssay AID602404 (Sanford-Burnham Center for Chemical Genomics, 2012).

The target in this assay is Ubiquitin-conjugating enzyme E2 N (Homo sapiens) (UniProt P61088). The experiment in a line: UBC13 polyubiquitination inhibitors, SAR follow-up, biochemical, TR-FRET, set 4 (AID 602404).

For part of its entries the source gives two or more results. This list holds those alone. No rule for the calls is given here. There may be further records. The values listed for one entry are repeats (runs, samples, wells, individuals or studies). What stands in brackets tells the records apart. Letters hold for one entry only.

Chain of UniProt P61088 (P61088 whole entry, looked up): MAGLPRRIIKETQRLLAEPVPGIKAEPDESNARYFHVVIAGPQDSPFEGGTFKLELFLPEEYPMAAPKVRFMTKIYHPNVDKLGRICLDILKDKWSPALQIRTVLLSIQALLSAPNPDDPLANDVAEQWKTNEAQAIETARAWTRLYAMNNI

For the molecule `Cc1ccc(NC(=O)C2CCN(c3ncnc4c3nc3n4CCCCC3)CC2)cc1C`, the IC50 was 7.58 µM [sample A] and inactive [sample B].
